Results as given in PubChem BioAssay AID686979 (National Center for Advancing Translational Sciences (NCATS), 2013).
Among all 420,000 compounds or so, about 50,000 (12%) were called active. Inconclusive results, whose numbers are uncertain, are shown with a selection of clear calls. Calls come from the whole dose curve; as a rule, active = well fitted inhibition curve with a large enough effect; inconclusive = small, poorly fitted or top-dose-only effect; inactive = flat fitted curve, though single readings scatter. Potencies of inconclusive entries are left out as doubtful fits.

Assay: qHTS for Inhibitors of human tyrosyl-DNA phosphodiesterase 1 (TDP1): qHTS in cells in presence of CPT; note: nearly all actives have a fitted effect of over 55% in size
Details: chicken DT40 Tdp1-/-;hTDP1 cells + 20 nM CPT, ATP luminescence, 48 h; activity change, negative = growth inhibition: at 46.2 µM (top of the series) unless noted
Summary of the method: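 Chicken DT40 Tdp1-/- cells complemented with human TDP1, 400 cells/well, exposed to compounds plus 20 nM camptothecin for at least 48 h at 37 C; viability read as ATP content by CellTiter-Glo luminescence.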
% is set by controls: 0 for no effect and ±100 for the full control effect; potency is the fitted concentration of half-maximal effect; tags give direction and shape of the fitted curve.

Structure (SMILES) | activity change, negative = growth inhibition | Potency
CN(C)S(=O)(=O)c1ccc(Cl)c(C(=O)Nc2nc3ccccc3[nH]2)c1 | inactive: -24.4% | –
COC(=O)c1ccc(Nc2nnc(-c3ccc(C)c(S(=O)(=O)N4CCN(C)CC4)c3)c3ccccc23)cc1 | – | inconclusive [inhibitor, single point]
Cc1ccc(C(=O)Nc2cccc(-c3nc4cccnc4s3)c2C)cc1 | – | inconclusive [inhibitor, single point]
CCc1cccc(N(C(=O)c2csnn2)C(C(=O)NC(C)(C)C)c2ccncc2)c1 (stereo unspecified) | – | inconclusive [inhibitor, single point]
C=CCn1c(SCC(=O)NCCCC)nc2scc(-c3ccco3)c2c1=O | – | inconclusive [inhibitor, single point]
CCOc1ccccc1CNC(=O)Cn1ccc2cc(S(=O)(=O)N3CCCC3)ccc21 | – | active: 18.4 µM
COc1ccc(C(CNC(=O)C(C)c2ccc3cc(OC)ccc3c2)N(C)C)cc1 (stereo unspecified) | inactive: -25.3% | –
CCOC(=O)CNC(=O)C1CCCN(c2ncccn2)C1 (stereo unspecified) | – | active: 29.1 µM
O=C1N(CN2C(=O)C3(OCCO3)c3ccccc32)c2ccccc2C12OCCO2 | – | inconclusive [inhibitor, single point]
CC1(C(=O)OCC(=O)Nc2ncc(Cl)cc2Cl)CC1(Cl)Cl (stereo unspecified) | inactive: 2.88% | –
COc1ccc(-c2c3c(=O)n(C)c(=O)n(C)c3cn2-c2cccc(OC)c2)cc1 | – | active: 29.1 µM
CCCCn1c(N)c(N(CC(C)C)C(=O)CCCn2c(=O)oc3ccccc32)c(=O)[nH]c1=O | inactive: -0.37% | –
CCN(CC(=O)N1CCCC1)S(=O)(=O)c1ccc(OC)cc1 | inactive: -1.17% | –
COc1cc(C(=O)N/N=C/c2ccc(OC(=O)c3cccc(C)c3)c(OC)c2)ccc1O | – | inconclusive [inhibitor, single point]
CCOC(=O)[C@]12CCC=C1N(Cc1ccco1)C(=O)[C@H](CC(=O)N1CCCC1)C2 | inactive: -16.2% | –
CCCN1CCN(CCNC(=O)Nc2ccc(OC)cc2OC)CC1 | inactive: -15.5% | –
COc1ccc(CN=C2NC(=O)CC(C(=O)Nc3ccc(Cl)cc3)S2)cc1 (stereo unspecified) | – | active: 20.6 µM
CCC1CN(CC(=O)NC(c2ccccn2)C(F)(F)F)Cc2cc(OC)ccc2O1 (stereo unspecified) | inactive: -4.71% [at 9.04 µM] | –
Cc1cc(C)cc(N2C(=O)C=CC2=O)c1 | – | active: 0.731 µM
CCOC(=O)c1cc2c(C)[nH]c(C)c2cc(C(=O)OCC)c1=O | – | inconclusive [inhibitor, single point]
CCc1ccccc1NC(=O)c1ccc(CN2CCC(Cc3ccccc3)CC2)cc1 | – | inconclusive [inhibitor, single point]
